Results from a collection of fitness landscapes (doi:10.1016/j.celrep.2020.107928).
Over roughly 81,000 sequences, “one-hybrid fitness for binding NBS DNA” has its median near -0.1; the highest 2% begin near 0.36. This is one part of the list.

B1: Caulobacter ParB omega fusion; a variant is named by its letters at X, in order, B8GW30 (parent)
chain: MESVVVGEPGMSEGRRGLGRGLSALLGEVDAAPAQAPGEQLGGSREAPIEILQRNPDQPRRTFREEDLEDLSNSIREKGVLQPILVRPSPDTAGEYQIVAGERAWRAAQRAGLKTVPIMVRELDDLAVLEIGIIENVQRADLNVLEEALSYKVLMEKFERTQENIAQTIGKSXSHVANXMRLLXLPDEVQSYLVSGELTAXHARAIAAAADPVALAKQIIEGGLSVRETEALARKAPNLSAGKSKGGRPPRVKDTDTQALESDLSSVLGLDVSIDHRGSTGTLTITYATLEQLDDLCNRLTRGI

Variants of: B1
Assay: one-hybrid fitness for binding NBS DNA (the Noc-binding site; scaled: cognate 1, non-cognate 0); higher = stronger binding
Conditions: with NBS DNA site
How it was run: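 Selection: bacterial one-hybrid in E. coli USO, HIS3 reporter with the site 19 bp from the promoter, 48 hours at 37°C on M9-minus-histidine plus 0.1 mM IPTG and 5 mM 3-AT. Libraries were Caulobacter ParB with four randomised specificity codons, sequenced on Illumina before and after selection. Fitness is the rescaled log change in variant-to-wild-type read ratio, anchored to the cognate and non-cognate sites.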

Variant	one-hybrid fitness for binding NBS DNA
SLDQ	≤ 0.2
SIQR	≤ 0.2
CGMS	≤ 0.2
MDAS	≤ 0.2
PAAN	≤ 0.2
ESSA	≤ 0.2
NMIG	≤ 0.2
PVDY	≤ 0.2
DVGK	≤ 0.2
NDSK	≤ 0.2
RSNI	≤ 0.2
YVTG	≤ 0.2
QTLA	0.329
HDKE	≤ 0.2
VTSW	≤ 0.2
NYTY	≤ 0.2
ESAT	≤ 0.2
NTKR	0.255
HTVG	≤ 0.2
IREG	≤ 0.2
RGPV	≤ 0.2
YNQT	≤ 0.2
SVIR	≤ 0.2
IDPG	≤ 0.2

Variant	one-hybrid fitness for binding NBS DNA
EHLA	≤ 0.2
IPTV	≤ 0.2
TTDM	≤ 0.2
VYIM	≤ 0.2
YWPY	≤ 0.2
DIHT	≤ 0.2
SFAV	≤ 0.2
YYRR	≤ 0.2
QGLR	≤ 0.2
YRCC	≤ 0.2
TEMS	≤ 0.2
DIDL	≤ 0.2
IYNN	≤ 0.2
NIGT	≤ 0.2
MNIS	≤ 0.2
SHAT	≤ 0.2
EQNR	≤ 0.2
VRFV	≤ 0.2
RKPR	≤ 0.2
TLPM	≤ 0.2
CLDV	≤ 0.2
RQGF	≤ 0.2
RNHH	≤ 0.2
PMHT	≤ 0.2

Variant	one-hybrid fitness for binding NBS DNA
RRNF	0.281
DVKT	≤ 0.2
RMKN	≤ 0.2
THRN	≤ 0.2
PQPV	0.241
TQRL	≤ 0.2
STVT	≤ 0.2
RKHC	0.263
NDME	≤ 0.2
RPLK	≤ 0.2
CPGC	≤ 0.2
TCCR	≤ 0.2
KPFR	≤ 0.2
WSIR	≤ 0.2
ELSN	≤ 0.2
ISPC	≤ 0.2
RVYG	≤ 0.2
QYPG	≤ 0.2
LLAH	≤ 0.2
HDPM	≤ 0.2
DCDT	≤ 0.2
RCLC	≤ 0.2
WLLN	≤ 0.2
QNIS	≤ 0.2

Variant	one-hybrid fitness for binding NBS DNA
EHKR	0.209
FMKK	≤ 0.2
KLGN	≤ 0.2
PVHL	≤ 0.2
APAN	≤ 0.2
IAPM	≤ 0.2
QFPI	≤ 0.2
RYRQ	≤ 0.2
GRAV	≤ 0.2
NVQQ	0.264
YKDN	≤ 0.2
DFRY	≤ 0.2
SMST	≤ 0.2
PHCE	≤ 0.2
SPYG	≤ 0.2
DIGK	≤ 0.2
GTAK	≤ 0.2
CHSY	≤ 0.2
TQYL	≤ 0.2
PYTN	≤ 0.2
RCYT	0.517
KWRS	≤ 0.2
HVNL	≤ 0.2
LGEG	≤ 0.2

Variant	one-hybrid fitness for binding NBS DNA
TTMI	≤ 0.2
SIAL	≤ 0.2
PFIR	≤ 0.2
SLRM	≤ 0.2
SKTY	≤ 0.2
RMYY	≤ 0.2
HTRP	≤ 0.2
VSLL	≤ 0.2
DIWY	≤ 0.2
ISRK	≤ 0.2
LGES	≤ 0.2
ELRV	≤ 0.2
PFIM	≤ 0.2
CARS	≤ 0.2
RARI	≤ 0.2
RLND	≤ 0.2
KQFV	≤ 0.2
GGMY	≤ 0.2
GTEG	≤ 0.2
CITH	≤ 0.2
YQIS	≤ 0.2
HALF	≤ 0.2
RRTN	0.339
QCPA	≤ 0.2

Variant	one-hybrid fitness for binding NBS DNA
IWES	≤ 0.2
CSWG	≤ 0.2
SYYW	≤ 0.2
NNDL	≤ 0.2
MAVE	≤ 0.2
TCVP	≤ 0.2
QWTW	≤ 0.2
HYQG	≤ 0.2
QLCF	≤ 0.2
TNAA	≤ 0.2
QMTY	≤ 0.2
IAVS	≤ 0.2
TLTH	≤ 0.2
HDRP	≤ 0.2
MSLI	≤ 0.2
HNKY	≤ 0.2
RNWN	≤ 0.2
CQLS	≤ 0.2
HFHL	≤ 0.2
PKYS	≤ 0.2
TVEL	≤ 0.2
CPRV	≤ 0.2
ATQE	≤ 0.2
YVQC	≤ 0.2

Variant	one-hybrid fitness for binding NBS DNA
EMDG	≤ 0.2
QQLC	≤ 0.2
NCTT	≤ 0.2
RSCC	≤ 0.2
TSDA	≤ 0.2
HRRN	≤ 0.2
VHEV	≤ 0.2
FLYG	≤ 0.2
IRSA	≤ 0.2
RYGN	≤ 0.2
QTPF	≤ 0.2
QQKR	1.1
QALN	≤ 0.2
MCYG	≤ 0.2
WDLR	≤ 0.2
SVNG	≤ 0.2
HTGV	≤ 0.2
TDTV	≤ 0.2
HSGD	≤ 0.2
HRFP	≤ 0.2
PHPV	≤ 0.2
FQKR	≤ 0.2
PVTC	≤ 0.2
NIQN	≤ 0.2

Variant	one-hybrid fitness for binding NBS DNA
HRHQ	≤ 0.2
AGLN	≤ 0.2
KLGT	≤ 0.2
SPCL	≤ 0.2
LGRR	≤ 0.2
RGRR	0.336
GWES	≤ 0.2
TRGW	≤ 0.2
VSPE	≤ 0.2
SAWG	≤ 0.2
NHDC	≤ 0.2
SHSW	≤ 0.2
GPLE	≤ 0.2
YDHS	≤ 0.2
AGNN	≤ 0.2
MTHG	≤ 0.2
PGVR	≤ 0.2
PCCH	≤ 0.2
CWVG	≤ 0.2
EWGR	≤ 0.2
FGRR	0.315
QGAM	≤ 0.2
QLQR	0.483
LAPQ	≤ 0.2

Variant	one-hybrid fitness for binding NBS DNA
RWTA	≤ 0.2
ACHY	≤ 0.2
KDNV	≤ 0.2
TTTY	≤ 0.2
KGIE	≤ 0.2
LYRT	≤ 0.2
VPSS	≤ 0.2
GQPC	≤ 0.2
IRRN	≤ 0.2
AELG	≤ 0.2
FPPT	≤ 0.2
KKYG	≤ 0.2
RGWC	≤ 0.2
EIRT	≤ 0.2
QIQD	≤ 0.2
FWYL	≤ 0.2
QFLG	≤ 0.2
DRKR	0.238
SDLS	≤ 0.2
APNY	≤ 0.2
LVHR	≤ 0.2
LTSG	≤ 0.2
FAET	≤ 0.2
WMIC	≤ 0.2

Variant	one-hybrid fitness for binding NBS DNA
RISP	≤ 0.2
KDPV	≤ 0.2
IQTA	≤ 0.2
FRSR	≤ 0.2
SVPN	≤ 0.2
EALY	≤ 0.2
NSEC	≤ 0.2
EAPK	≤ 0.2
CTYC	≤ 0.2
QCCS	0.393
FRVS	≤ 0.2
VQYS	≤ 0.2
ESGK	≤ 0.2
EMLW	≤ 0.2
INVG	≤ 0.2
EAKA	≤ 0.2
GVAP	≤ 0.2
INHS	≤ 0.2
SNPL	≤ 0.2
LGYE	≤ 0.2
LCPR	≤ 0.2
TEMF	≤ 0.2
CTSK	≤ 0.2
PGLN	≤ 0.2

Variant	one-hybrid fitness for binding NBS DNA
SRMR	≤ 0.2
TSYH	≤ 0.2
KIRS	≤ 0.2
CGPA	≤ 0.2
WFSI	≤ 0.2
QTPS	0.314
KQQT	≤ 0.2
QFVQ	≤ 0.2
PMCS	≤ 0.2
WSSA	≤ 0.2
QSNH	0.273
QSEW	≤ 0.2
HMTV	≤ 0.2
DTFS	≤ 0.2
PCQN	≤ 0.2
HVFC	≤ 0.2
NHLL	≤ 0.2
DTDR	≤ 0.2
EMRR	0.21
KPVD	≤ 0.2
GWWT	≤ 0.2
AHYE	≤ 0.2
RSVA	≤ 0.2
PGQD	≤ 0.2

Variant	one-hybrid fitness for binding NBS DNA
DQWV	≤ 0.2
RNAA	≤ 0.2
PWYC	≤ 0.2
NGPR	≤ 0.2
QNVW	≤ 0.2
KSRG	≤ 0.2
TFGN	≤ 0.2
SNRK	≤ 0.2
WVQG	≤ 0.2
CHRG	≤ 0.2
FGNR	≤ 0.2
KWYS	≤ 0.2
QWYM	≤ 0.2
PPHT	≤ 0.2
QRAA	0.617
VSNI	≤ 0.2
TVHR	≤ 0.2
YMDR	≤ 0.2
PPRE	≤ 0.2
YLMR	≤ 0.2
ESKT	≤ 0.2
AVYK	≤ 0.2
QYWV	≤ 0.2
CSDS	≤ 0.2

Variant	one-hybrid fitness for binding NBS DNA
CRLG	≤ 0.2
RKGI	≤ 0.2
PPPK	≤ 0.2
PLKA	≤ 0.2
RCQH	0.228
SCIY	≤ 0.2
QPRC	≤ 0.2
LYYT	≤ 0.2
IPPS	≤ 0.2
TCVR	≤ 0.2
VDAF	≤ 0.2
PDDL	≤ 0.2
YSHY	≤ 0.2
NVGN	≤ 0.2
FDDT	≤ 0.2
CMAG	≤ 0.2
VKIR	≤ 0.2
HPKA	≤ 0.2
